The supplement of paper PMC10681739
± gives the standard deviation of the averaged measurements. In all, about 4,100 sequences were measured (“arbitrary fluorescence units”: median about 780, highest 2% from about 22,000 on). The list shows a part of the results.

These sequences were tested against T1, ETS1 (UniProt P14921) (assay: ETS1 binding intensity (PBM fluorescence), ETS1 alone (arbitrary fluorescence units); higher = stronger binding). Conditions: ETS1 concentration 1 nM; RUNX1 concentration 0 nM.
T1 sequence: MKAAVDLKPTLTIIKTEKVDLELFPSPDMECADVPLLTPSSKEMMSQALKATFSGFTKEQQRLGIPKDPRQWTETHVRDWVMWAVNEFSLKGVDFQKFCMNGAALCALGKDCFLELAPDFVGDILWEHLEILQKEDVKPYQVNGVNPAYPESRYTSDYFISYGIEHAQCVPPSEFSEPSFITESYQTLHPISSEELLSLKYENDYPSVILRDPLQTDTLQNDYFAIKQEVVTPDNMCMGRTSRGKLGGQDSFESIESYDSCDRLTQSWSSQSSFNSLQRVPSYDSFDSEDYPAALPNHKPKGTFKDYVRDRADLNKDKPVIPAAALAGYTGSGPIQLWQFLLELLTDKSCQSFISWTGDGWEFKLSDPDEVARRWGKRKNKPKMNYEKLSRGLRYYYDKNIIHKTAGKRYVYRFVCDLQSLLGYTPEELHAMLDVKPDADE
Summary of the method: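 Full-length recombinant human ETS1 (1 nM, no RUNX1) was incubated, per standard PBM protocols, on double-stranded Agilent 4 × 180k arrays of 36-bp genomic probes whose RUNX1 partner site was mutated. Bound ETS1 was detected with anti-ETS1 antibody (Cell Signaling Technology 14069) and Alexa488-conjugated secondary antibody, then scanned on a GenePix 4400A. Binding level is spot fluorescence intensity, summarised over replicate spots (four printed per sequence) and not normalised.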

Row | Sequence | ETS1 binding intensity
1 | CGGCGGCCGCTGAGGGAGCCACAGGAAGTGAAGAGC | 2130
2 | CCGACTGCAGGGGCGGGGCCGGAGCCAGGAAGCGCT | 518
3 | AAATGTAGCCCGGAACCAAGTGTGCGCTGACGACTC | 413
4 | TCTGTAGGTTTACCTGTTCTGGATATTTCCTGTAAA | 980
5 | TTTCATATTTGTAGTTTTGGTGTTTCCTCTTACACA | 865
6 | GTGAGTCACTTCCTGACCATGTAGGTTTTTGGTACG | 4020
7 | CCTGGTCCGGAAGCGCTGTCCCCGCCTCCCGAATAG | 3270
8 | TGAAACTACAATTAAAAGCTCAGACATCCTCCCCTC | 349
9 | AGCTGGGGTGGGCTCCACCCAGTTTGAACTTCCTGG | 595
10 | GCCCTGCAGGCCCCGTTCCCGCCATTCCTTCCTGCC | 438
11 | TCACTGTCGTATCTGGAAGCAAAAGGAAATGTGCTC | 470
12 | TATGGGGCCGGAAGCCATTCACCCCAAACACTGTGT | 4230
13 | TCTCAAAGGAAGGGAAAGCTTGGCCTGCAGCACCCA | 361
14 | GGCCTCGCGGCGTCTCTGCTGCTTCCGCCTTCCCGG | 854
15 | TCCGCCCGCGGATGCTGAGAACAGCAGCTGCACAAG | 396
16 | CTTAAACCGGCCACGACAGCTCACCCATCCTGTCGG | 438
17 | TGATTCCTGTGCCTACAAGGCTCCCGGAAGTGTCAG | 2190
18 | TACAGCCAGGAAATGGGGAGGGTGCTGCAGGCGGCA | 2100
19 | CGACCCGGGGATGTGAGCGGAGTCTACGGCTGCGCT | 323
20 | CGGCAGCTGCACCGAAGGGACATCTTCCGCCAGAGC | 384
21 | AAAGGGCGGGGAAACGGAATTGCCGCGAGCTCTCCG | 470
22 | GGAAAAGGAAGTGGCTTTGACTCGCGGGCAGGGAGA | 2310
23 | CTAACCCTTCTCTTCCTGCAAAAACCCCAACAAAGG | 1180 ± 270
24 | ACGTGCTCAGATCCCCAACCCTTCCCGGAAAGGGGA | 387
25 | TAGGTCACCTCCGCGACACAGCAACGGAAGTAGGGT | 1110
26 | TCCCCTCTACAGCCCCAAGAATGGGAAATGGCTTGT | 402
27 | AGCTCCAGGAAGAGGGCCTGAACACCAAACGGGGGA | 481

Row | Sequence | ETS1 binding intensity
28 | GACTCTTCCGGCCCAGAGCTTTCGGAGTGCGTTTGC | 8040
29 | GCCTGCCTGCAGGCGAGTGGAGTCAGGATGAGTGTC | 313
30 | TCTCTTCCTGTGATGGAAATACATTGGGGTTCGCGG | 6720
31 | CACCTCTCAGGAAGGACCGAGCCCGAAAGTCCCTCA | 505
32 | AAGAGTCGCGCTTTTCCACCAGGAAGTTGTCCAGTC | 612
33 | TCGCCCACTTCCCCACCTCTCAAAAGACAACAGGCA | 1100
34 | GACAAGCTACAGGTGAGTCAGCATGCCACTTCCCGA | 400
35 | AGCTGCAGGGTGTGCTCAGGAGAGGAAGCGAGGCCT | 407
36 | TGCTCTGGGGACAGCCCAGGTGCAGGAAGGGGCCAG | 312
37 | AGGGAAGAGGGAAGTCGTGGTGTTCGCGAGGGAGCC | 482
38 | CAAAATGCGCGATCTGGAGAGGAAACAAAGCAGTGG | 393
39 | AGGTTCCTGAGGTGGCCGCGTGCTGGTTCCGTTAGC | 398
40 | CTGTCCACATAAGGAAGTTGGGACCCCAAGGTCTTT | 557 ± 52
41 | TTGCACTCTGAGGGGACGGGAGAAGGAAGGAAAAAT | 542
42 | CCCGGACTGCAGGCCGGACTACACTTCCCGTCGGCC | 810
43 | CCTGCTGTGACTTCGGCTGTTTTCCTGGCCTGTGAG | 387
44 | GCCGCCGTAGATTCGACACAAAACCCGGAAGGACCC | 530
45 | TAGCCACTAACCGGAAACGTTAAACTACAGCTCCGT | 13000
46 | GAGCGGAAACCCGAGAGTCAGTTCAACGACAGCCAC | 1290
47 | GCCCCGGTGGATTTGACCTCCCGCGAACTTCCCTTT | 364
48 | CTGTCCGCTACATCCGGGACCTGGGGGACCGCCGAT | 10800
49 | GTGCTGTGACCCCAACGTACACAGCAGGAAGGAAGG | 463
50 | AGCCACGGTAGCAGGGCGCAGGCCGGAACCTTTCTT | 347
51 | TAAACTACGTTTCCCAGAAGGCTGAGGGATTGCGTC | 339
52 | AGCGTTGTCTTCCGGCCTCAATCACTCAGCGACCGG | 7020
53 | AACAACAAACATCCCAGGAACCCCAGTGGGACAGGA | 424
54 | ACAGTATTTTGGTGAATCATTTCCTTCCAAGGCTCA | 703

Row | Sequence | ETS1 binding intensity
55 | TCCAGCGTTAATAATCACACACACTTCCTCTTAATC | 1140
56 | ACCTCCGCTGAGCACCCTGCAGGCGGAAGAACGGCC | 472
57 | CTCTGTCAGGAAAATACACTTGGATGAGGTGACAGA | 317
58 | CAAGGAGGCTTCCTGCGTGGGGCCGAAGAGCGAGTC | 2930
59 | CCCCTTCATCCGCCTCTCTCTCGCCGCGCCGCTCCC | 1250
60 | CTCCCACATCCGAAGCGGCGCAACTCACAACAGCCT | 1140
61 | GCTTTCTCTGGTGACTGGGCGCTTCCTGTTTTCTCA | 2540
62 | TTGCTTTTTAAGGTTTGTATTTCCTGTGTGAGCTGT | 2880
63 | TGGGGTGGGGTGGGAAGTGCCAGCGGCCTGGGTGTC | 576
64 | CTGCGTCCCGGAAGGAGCGAGCTTACGGAGCGTGAA | 3080
65 | CGTGTCCACGGGGACCGAAAGTGGCGTCCGGCGCAA | 354
66 | CTCCCGGACGCTAACGTCTGGCAAATCACATTGCCC | 453
67 | AGCGGGGAGGAAGATCAGAAGAAAACCCCACGAGTT | 384
68 | CAGCTGCGGAACTGCGCGATTGGGGTTCCCGCCGTA | 608
69 | AGTCTCACGGTGCTTGAACCAGCGGAAGTGACGTCG | 1730
70 | GCAGCTTAGGAAGGGGCGGCTGAGCACACTGGTCTA | 458
71 | CGGGAGATTCCGGATCCAGGATCTGCTGCAGGCCCG | 401
72 | GCGCTTCCTGCCAGCTTGGAGGATAGCCGCCTACCG | 14500
73 | AGTTTCTTCTTTCCGGTGGGTTTGGGGTCTTGCTGA | 7130
74 | ACCACACTTCCCAAGGGTCTCTGGGGCTGCGCGGAG | 357
75 | TGGTGCTTTGGTGCTTTGGTGGCAGCAGGAAGGTAA | 497
76 | GGGTCACCCAGGGGAAGTTTGAACCCCAGCCATCAG | 500
77 | AGGTTCCGGGGCTACACCCAGCCCAGGCCGTAGGCA | 1980
78 | AAAGCTCCGCGCGGGTCCCACCCCGGAACTGCCTCT | 378
79 | CCTAAGTGACAGGATGGTCTGGCGACGACATTGCCC | 479
80 | GGACATCAGATGAGGTAGAGCAGGAAGAGGCGCTGT | 533
